Results as given in patent publication US20220411483A1 (Chugai, published 2022).
Positions count from the first letter of the chain named. Numbers in names are those of the source.

T1: human FcγRIIa R type extracellular domain with C-terminal His tag (human, UniProt P12318 34-217)
T1 construct: extracellular domain; also called FcgRIIaR
T1 sequence (looked up): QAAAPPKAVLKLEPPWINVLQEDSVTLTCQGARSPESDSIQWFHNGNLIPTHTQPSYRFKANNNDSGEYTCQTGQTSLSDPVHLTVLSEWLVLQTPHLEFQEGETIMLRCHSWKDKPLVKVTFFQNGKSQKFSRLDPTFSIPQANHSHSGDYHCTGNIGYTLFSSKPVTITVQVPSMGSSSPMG

T2: human FcγRIIa H type extracellular domain with C-terminal His tag (human, UniProt P12318 34-217)
T2 construct: extracellular domain; also called FcgRIIaH
T2 sequence (looked up): T1 sequence (looked up) with R134H

T3: human FcγRIIb extracellular domain with C-terminal His tag (human, UniProt P31994 43-217)
T3 construct: extracellular domain; also called FcgRIIb
T3 sequence (looked up): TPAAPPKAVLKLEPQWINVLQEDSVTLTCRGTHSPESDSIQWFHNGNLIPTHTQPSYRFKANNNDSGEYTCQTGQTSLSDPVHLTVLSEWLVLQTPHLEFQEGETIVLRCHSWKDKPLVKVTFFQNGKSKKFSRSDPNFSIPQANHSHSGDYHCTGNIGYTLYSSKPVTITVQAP

T4: FcgRIIaR (human, UniProt P12318 34-217)
T4 construct: extracellular domain; also called FcγRIIa R type; FcγRIIa (R type)
T4 sequence (looked up): T1 sequence (looked up)

T5: FcgRIIb (human, UniProt P31994 43-217)
T5 construct: extracellular domain; also called FcγRIIb
T5 sequence (looked up): T3 sequence (looked up)

B1: IL6R-P112/IL6R-L (antibody, human IgG1, kappa)
heavy: QVQLQESGPGLVKPSETLSLTCAVSGHSISHDHAWSWVRQPPGEGLEWIGFISYSGITNYNPSLQGRVTISRDNSKNTLYLQMNSLRAEDTAVYYCARSLARTTAMDYWGEGTLVTVSS[human IgG1 constant region with P238D P271G (EU numbers) not shown]
light: DIQMTQSPSSLSASVGDRVTITCRASQDISSYLNWYQQKPGKAPKLLIYYTSRLHSGVPSRFSGSGSGTDFTFTISSLQPEDIATYYCQQGNTLPYTFGQGTKVEIKRTVAAPSVFIFPPSDEQLKSGTASVVCLLNNFYPREAKVQWKVDNALQSGNSQESVTEQDSKDSTYSLSSTLTLSKADYEKHKVYACEVTHQGLSSPVTKSFNRGEC
B2: IL6R-P600/IL6R-L (antibody, human IgG1, kappa)
heavy: QVQLQESGPGLVKPSETLSLTCAVSGHSISHDHAWSWVRQPPGEGLEWIGFISYSGITNYNPSLQGRVTISRDNSKNTLYLQMNSLRAEDTAVYYCARSLARTTAMDYWGEGTLVTVSS[human IgG1 constant region with P238D S298A (EU numbers) not shown]
light: B1 light
B3: IL6R-F648/IL6R-L (antibody, human IgG1, kappa)
heavy: QVQLQESGPGLVKPSETLSLTCAVSGHSISHDHAWSWVRQPPGEGLEWIGFISYSGITNYNPSLQGRVTISRDNSKNTLYLQMNSLRAEDTAVYYCARSLARTTAMDYWGEGTLVTVSS[human IgG1 constant region with P238D (EU numbers) not shown]
light: B1 light
B4: IL6R-P742/IL6R-L (antibody, human IgG1, kappa)
heavy: QVQLQESGPGLVKPSETLSLTCAVSGHSISHDHAWSWVRQPPGEGLEWIGFISYSGITNYNPSLQGRVTISRDNSKNTLYLQMNSLRAEDTAVYYCARSLARTTAMDYWGEGTLVTVSS[human IgG1 constant region with P238D K322E (EU numbers) not shown]
light: B1 light
B5: IL6R-G1dK322E/IL6R-L (antibody, human IgG1, kappa)
heavy: QVQLQESGPGLVKPSETLSLTCAVSGHSISHDHAWSWVRQPPGEGLEWIGFISYSGITNYNPSLQGRVTISRDNSKNTLYLQMNSLRAEDTAVYYCARSLARTTAMDYWGEGTLVTVSS[human IgG1 constant region with K322E (EU numbers) not shown]
light: B1 light
B6: IL6R-G1dK322A/IL6R-L (antibody, human IgG1, kappa)
heavy: QVQLQESGPGLVKPSETLSLTCAVSGHSISHDHAWSWVRQPPGEGLEWIGFISYSGITNYNPSLQGRVTISRDNSKNTLYLQMNSLRAEDTAVYYCARSLARTTAMDYWGEGTLVTVSS[human IgG1 constant region with K322A (EU numbers) not shown]
light: B1 light
B7: IL6R-P741/IL6R-L (antibody, human IgG1, kappa)
heavy: QVQLQESGPGLVKPSETLSLTCAVSGHSISHDHAWSWVRQPPGEGLEWIGFISYSGITNYNPSLQGRVTISRDNSKNTLYLQMNSLRAEDTAVYYCARSLARTTAMDYWGEGTLVTVSS[human IgG1 constant region with P238D K322A (EU numbers) not shown]
light: B1 light
B8: IL6R-G1dK322A/IL6R-L (antibody, human IgG1, kappa)
heavy: B6 heavy
light: B1 light
B9: IL6R-P742/IL6R-L (antibody, human IgG1, kappa)
heavy: B4 heavy
light: B1 light
B10: IL6R-G1dK322E/IL6R-L (antibody, human IgG1, kappa)
heavy: B5 heavy
light: B1 light
B11: IL6R-P112/IL6R-L (antibody, human IgG1, kappa)
heavy: B1 heavy
light: B1 light
B12: IL6R-P600/IL6R-L (antibody, human IgG1, kappa)
heavy: B2 heavy
light: B1 light
B13: IL6R-G4d/IL6R-L (antibody, human IgG4 S228P, kappa)
heavy: QVQLQESGPGLVKPSETLSLTCAVSGHSISHDHAWSWVRQPPGEGLEWIGFISYSGITNYNPSLQGRVTISRDNSKNTLYLQMNSLRAEDTAVYYCARSLARTTAMDYWGEGTLVTVSSASTKGPSVFPLAPCSRSTSESTAALGCLVKDYFPEPVTVSWNSGALTSGVHTFPAVLQSSGLYSLSSVVTVPSSSLGTKTYTCNVDHKPSNTKVDKRV[human IgG4 Fc with S228P (EU numbers) not shown]
light: B1 light
notes: Human IgG4 with S228P and without C-terminal Gly-Lys

Molecular target: T6, human FcγRIa extracellular domain with C-terminal His tag (human, UniProt P12314 16-292)
T6 construct: Whole entry named; also called FcgRIa
T6 sequence (P12314 16-292): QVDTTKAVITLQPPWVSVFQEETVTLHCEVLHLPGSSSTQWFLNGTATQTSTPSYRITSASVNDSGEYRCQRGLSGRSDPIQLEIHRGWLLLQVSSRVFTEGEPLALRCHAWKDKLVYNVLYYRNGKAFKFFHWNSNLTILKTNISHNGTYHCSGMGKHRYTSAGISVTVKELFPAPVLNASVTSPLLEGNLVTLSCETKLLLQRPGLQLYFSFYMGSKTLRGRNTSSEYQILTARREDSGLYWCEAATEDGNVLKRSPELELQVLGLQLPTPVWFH
Assay: SPR, antibody captured, FcgR analyte

Kd [nM] | Binder
3.5 | B1
3.6 | B2
6.4 | B3
8.2 | B4
0.18 | B5
0.25 | B6

Molecular target: T1, human FcγRIIa R type extracellular …
Assay: SPR, antibody captured, FcgR analyte

Kd [nM] | Binder
3400 | B1
39000 | B2
16000 | B3
16000 | B4
810 | B5
20000 | B7
950 | B6

Molecular target: T2, human FcγRIIa H type extracellular …
Assay: SPR, antibody captured, FcgR analyte

Kd [nM] | Binder
680 | B5
900 | B6

Molecular target: T3, human FcγRIIb extracellular domain with …
Assay: SPR, antibody captured, FcgR analyte

Kd [nM] | Binder
280 | B1
3200 | B2
2000 | B5
1500 | B7
2100 | B6

Molecular target: T7, human FcγRIIIa V type extracellular domain with C-terminal His tag (human, UniProt P08637 in part)
T7 construct: extracellular domain; also called FcgRIIIaV
T7 sequence (P08637 17-208 F176V): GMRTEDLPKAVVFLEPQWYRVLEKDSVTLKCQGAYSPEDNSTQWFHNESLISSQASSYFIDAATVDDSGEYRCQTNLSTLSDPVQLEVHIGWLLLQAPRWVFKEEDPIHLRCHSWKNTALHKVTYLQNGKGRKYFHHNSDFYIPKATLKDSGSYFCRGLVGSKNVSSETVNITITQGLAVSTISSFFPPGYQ
Assay: SPR, antibody captured, FcgR analyte

Kd [nM] | Binder
470 | B5
500 | B6

Molecular target: T4, FcgRIIaR
Assay: SPR, amount bound per captured antibody

Relative FcgRIIaR-binding Activity [IL6R-G1d/IL6R-L=100] | Binder
105 | B8
26.6 | B9
112 | B10
75.7 | B11
15.6 | B12

Molecular target: T5, FcgRIIb
Assay: SPR, amount bound per captured antibody

Relative FcgRIIb-binding Activity [IL6R-G1d/IL6R-L=100] | Binder
109 | B8
129 | B10
287 | B11
102 | B12

Molecular target: T8, human complement C1q (human, UniProt P02745; P02746; P02747)
T8 construct: Bought (PROSPEC or Calbiochem); also called human C1q
T8 sequence (P02745 23-245 limits assumed, chain 1 of 3): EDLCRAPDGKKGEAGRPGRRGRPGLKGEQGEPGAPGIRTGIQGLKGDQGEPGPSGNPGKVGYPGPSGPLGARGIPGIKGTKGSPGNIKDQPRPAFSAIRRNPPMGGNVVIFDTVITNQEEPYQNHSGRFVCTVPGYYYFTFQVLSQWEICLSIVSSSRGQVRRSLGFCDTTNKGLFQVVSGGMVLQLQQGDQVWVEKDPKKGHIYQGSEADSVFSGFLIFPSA
T8 sequence (P02746 28-253 limits assumed, chain 2 of 3, further chain): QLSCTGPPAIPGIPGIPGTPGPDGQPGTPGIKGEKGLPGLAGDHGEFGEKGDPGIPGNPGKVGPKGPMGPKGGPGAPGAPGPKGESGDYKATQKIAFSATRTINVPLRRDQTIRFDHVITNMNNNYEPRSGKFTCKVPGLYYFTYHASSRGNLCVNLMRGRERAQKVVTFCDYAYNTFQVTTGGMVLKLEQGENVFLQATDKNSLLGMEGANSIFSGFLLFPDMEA
T8 sequence (P02747 29-245 limits assumed, chain 3 of 3, further chain): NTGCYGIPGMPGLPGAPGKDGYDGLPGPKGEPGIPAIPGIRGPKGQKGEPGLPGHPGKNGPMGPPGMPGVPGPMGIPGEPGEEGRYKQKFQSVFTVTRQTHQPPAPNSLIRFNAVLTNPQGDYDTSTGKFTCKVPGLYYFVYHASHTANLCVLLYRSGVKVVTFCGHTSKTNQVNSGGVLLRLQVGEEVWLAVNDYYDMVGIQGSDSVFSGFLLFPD
Assay: SPR, C1q bound per antibody captured on Protein L
Description: The interaction between an antibody and human C1q was analyzed using Biacore T200 (GE Healthcare). HBS-EP+ (GE Healthcare) was used as the running buffer, and the measurement temperature was set at 25° C. Chips produced by immobilizing Protein L (ACTIGEN or BioVision) onto Series S sensor Chip CM4 (GE Healthcare) by amine coupling were used.
The antibodies of interest were captured onto these sensor chips, and allowed to interact with human complement C1q (PROSPEC or Calbiochem) diluted in the running buffer. The amount of antibody binding was determined, and comparisons were made among the antibodies. However, since the amount of C1q bound depends on the amount of captured antibodies, corrected values obtained by dividing the amount of C1q bound by the amount of each antibody captured were compared. Furthermore, by reaction with 10 mM glycine-HCl, pH 1.5, the antibodies captured onto the sensor chips were washed, and the sensor chips were recycled and reused.

Amount of C1q-binding when that for G1d is Defined as 100 [G1d=100] | Binder
20.5 | B8
15.5 | B13
14.1 | B9
2.3 | B10
24.2 | B11
2.4 | B12

Molecular target: T6, human FcγRIa extracellular domain with …
Assay: SPR, KD of IL6R-G1d/IL6R-L divided by KD of variant

Relative FcgRIa-binding Activity | Binder
0.091 | B1
0.089 | B2
0.05 | B3
0.039 | B4
1.78 | B5
1.28 | B6

Molecular target: T1, human FcγRIIa R type extracellular …
Assay: as above

Relative FcgRIIaR-binding Activity | Binder
0.32 | B1
0.03 | B2
0.07 | B3
0.07 | B4
1.36 | B5
1.16 | B6

Molecular target: T2, human FcγRIIa H type extracellular …
Assay: as above

Relative FcgRIIaH-binding Activity | Binder
0.018 | B1
0.012 | B2
0.017 | B3
0.017 | B4
0.912 | B5
0.689 | B6

Molecular target: T3, human FcγRIIb extracellular domain with …
Assay: as above

Relative FcgRIIb-binding Activity | Binder
7.5 | B1
0.7 | B2
1.1 | B5
1 | B6

Molecular target: T7, human FcγRIIIa V type extracellular …
Assay: as above

Relative FcgRIIIaV-binding Activity | Binder
0.005 | B1
0.006 | B2
0.006 | B3
0.007 | B4
0.787 | B5
0.74 | B6
